Data published in the supplement of paper PMC10126150.
Sequences with one replicate were seen in a single cluster, so their values are uncertain.

System: ATP
Test: switch fluorescence ratio, 500 uM ATP over buffer (Cy3 cluster intensity, sum of 5 cycles each) (fold (ratio)); higher = stronger signal-on switching upon ATP binding; sequences stand for … in TCGTCGGCAGCGTCAGATGTGTATAAGAGACAGTTTTTTTTTTTTTTTTTTTTTTTTT…TC
Conditions: aptamer strand: ATP DNA aptamer (quencher-CACCTGGGGGAGTATTGCGGAGGAAGG + anchor), 100 nM annealed; ATP concentration: 500 uM; one replicate
Outline: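 The quencher-labelled ATP aptamer, at 100 nM, was annealed to Cy3-labelled switching-strand clusters on a modified Illumina MiSeq flow-cell. The clusters were imaged in selection buffer, then after 15 min with 500 uM ATP at 22 °C, and this buffer/ATP cycle ran five times with NaOH stripping and re-annealing between runs. Per-cluster fluorescence ratios, summed target-cycle over summed buffer-cycle Cy3 intensity, were averaged per switch-domain sequence. Clusters outside 100-1000 RFU were excluded.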
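Note: ATP exposure 15 min at 22 °C before imaging.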

Row | Sequence | switch fluorescence ratio
1 | AGGACTATAA | 1.03
2 | TCTGTAGGGT | 0.987
3 | AAGATACCAC | 1.16
4 | ATGCCTTTTT | 0.981
5 | GTAGTAATAA | 3.04
6 | TTATTAATTC | 0.975
7 | ACGCCAACCC | 1.46
8 | GGGGTAGCAG | 0.988
9 | CGGGGCGAGT | 1.21
10 | TGGCCACTTT | 0.988
11 | GAACGAGTCC | 1
12 | ACAGCCAATG | 1
13 | GCCTCAGTGA | 1.38
14 | CAACGGCTCT | 1.01
15 | GGGATAAACC | 1.02
16 | CGAAGATAAT | 0.974
17 | GACTGCCTGA | 1.02
18 | GGAAAGCGCC | 1.06
19 | TCGCTATGGC | 1.22
20 | CGGCGGGGAT | 1.01
21 | GAATAACAAC | 1.04
22 | TGCTGTGTCA | 0.972
23 | GTCCCGTG | 0.973

Row | Sequence | switch fluorescence ratio
24 | ATAACTCGTA | 1
25 | TCTGCCTGAT | 0.997
26 | TTACTGTCTG | 1.01
27 | TCATTGGAA | 0.998
28 | TTTACCTACT | 1.33
29 | TTAAAGACAG | 1.02
30 | GCGGTTAGGG | 0.98
31 | ACCCTGGGAG | 1.01
32 | ATGAGCG | 1.01
33 | TGTTTCGGCA | 1
34 | AACGCGATAT | 6.96
35 | TGGCCGGTGC | 0.997
36 | TCCGTGGGCC | 1.04
37 | CAAACCGTTG | 1.06
38 | CTGGTGCAGC | 1.03
39 | ACCTGATAGA | 0.984
40 | ACCCCTTTCG | 1.07
41 | TCTTCGGGAG | 1.09
42 | AGAACTCACT | 1.03
43 | AACTGGCACG | 1.04
44 | AATTTGATGA | 1.03
45 | GCGTGGCGGG | 0.996
46 | ACTGGGCCGC | 1.07

Row | Sequence | switch fluorescence ratio
47 | GCGCGTGGGG | 0.994
48 | AAAGCTTGTT | 1
49 | GAGACGCTTG | 0.961
50 | GACAGGTTGG | 0.988
51 | CAGGTTGCCC | 0.992
52 | AGTTTCAACA | 1.03
53 | CCTATCAGGG | 1.03
54 | TTTTAATCT | 1.02
55 | TGATTCAGCT | 0.959
56 | TGTGTCGGGG | 0.995
57 | CGAGCAAGGT | 1.89
58 | TCACGGCTCT | 1.06
59 | GGTAAAAGCC | 0.992
60 | TCATGATGTT | 0.99
61 | TGATACTTAT | 0.959
62 | GCTGAGTAGC | 0.997
63 | TTCTTTAAGA | 0.979
64 | GCCCGGTGA | 1.78
65 | GATCTAAATG | 1.02
66 | GTCACACACC | 1.3
67 | GAGTATTGTA | 0.979
68 | TCTAGACAGG | 1.04
69 | ATACTCAAAT | 0.993

Row | Sequence | switch fluorescence ratio
70 | CCCGGACAAA | 1.01
71 | CAAACTTTTT | 0.975
72 | CCAAACGTCT | 1.05
73 | ATTAAAGAGT | 1.02
74 | CTTGAGACGC | 1.08
75 | TAGTTTTCAC | 0.98
76 | AGATCGGCCA | 0.991
77 | ACAGTTCTCT | 1.03
78 | TTGGCCAATG | 1.02
79 | CATATCGAGA | 1.01
80 | ATAATGTAAC | 0.997
81 | AATGTACAT | 0.993
82 | TATTACGCAC | 1.92
83 | ATAGTTGCGC | 1.03
84 | TTGTGATAAG | 1.01
85 | GCTCTAAAAA | 1.04
86 | GCAACTAGGG | 1.02
87 | ACCCGGTTA | 1.02
88 | CTATACCGTA | 1.07
89 | TCGTGATTGC | 1.05
90 | GCAGTCGCGA | 1.04
91 | TAGTGGCCCT | 1.05
92 | CTCGTCAAC | 1.34

Row | Sequence | switch fluorescence ratio
93 | GGACGATATG | 0.97
94 | TGTGTTGTAG | 1
95 | CGTTATGT | 0.992
96 | AGGGGGCTAG | 1.01
97 | AGACTTAGAT | 1.03
98 | GGGAAGACCT | 0.953
99 | CTGAGTCCTA | 1.08
100 | GCTCGAAGTG | 1.04
101 | AGTAGGACTA | 1.01
102 | ATGGAACTCC | 1.05
103 | CTCTCTTTT | 1.02
104 | CGCGAAAAGT | 0.963
105 | AGCGGCCTTA | 1.01
106 | CGCTCAAGCG | 0.979
107 | TAACTGGGGA | 1.02
108 | ACAGATATAT | 1.02
109 | TATATTCT | 0.979
110 | GGCAGGGTCC | 0.959
111 | GGCGCCTGAG | 1.01
112 | GGATTAGGT | 0.99
113 | GAGTTAATAA | 1.03
114 | CAAAAAGGTC | 1.02
115 | AGAGCACGTT | 1.03

Row | Sequence | switch fluorescence ratio
116 | GTGGAACGAA | 1.01
117 | GTACTAAGTT | 1.08
118 | ATGAGTCAGT | 0.977
119 | CGAATAGGTG | 1.1
120 | CGCTATGCCT | 0.989
121 | TTGAGAAGCA | 0.992
122 | TTTCCGCCA | 3.91
123 | CGGACACGTC | 1.01
124 | CCGGTACCTT | 1.06
125 | ACCGTCTGTT | 1
126 | ATGTGGTGAG | 1.02
127 | GAGACCAGCC | 1.32
128 | GACACTTTGG | 0.981
129 | AAGTTCGGCC | 0.985
130 | TAGGACTACG | 1
131 | AGCACTTCTA | 1.02
132 | CGTACGTTAG | 1.01
133 | GGACCAGG | 0.978
134 | AGCCATGGGA | 0.997
135 | CTAGTAGGGT | 0.984
136 | ATCTGGAGGG | 1.03
137 | AGATAATGTT | 0.97
138 | AGCATTACTT | 2.26

Row | Sequence | switch fluorescence ratio
139 | GGTATTCATA | 1
140 | AGACGTCATT | 0.991
141 | TAGGTACAAG | 0.997
142 | CAGATCTTTG | 1
143 | AACATCGGC | 0.974
144 | CGCGGATGAG | 1.01
145 | ATGCATACA | 1.03
146 | CGCTGGTAGG | 1.01
147 | ACGCGTACGA | 0.959
148 | TACAGGCATC | 1.06
149 | AAATACTTCG | 1.07
150 | TATGGGAAGG | 1.01
151 | CATCTTTAAT | 1.02
152 | TCAAATGGGG | 1.02
153 | TATAAACCCT | 1.14
154 | TCAGGGTCAC | 0.948
155 | GGATATGGTG | 0.954
156 | TGTTTGAGTG | 1.05
157 | GTGGTCTGTT | 0.991
158 | ACCAGACTGT | 1.08
